This note sets out measurements from the RNAGym collection of RNA variant scans (doi:10.1073/pnas.2313332121).

Variants at the floor of the assay are shown more often than the library holds them.

The chains are these.
B1: TPR 5TU (parent)
chain: GGAUCUUCUCGAUCUAACAAAAAAGACAAAUCUGCCACAAAGCUUGAGAGCAUCUUCGGAUGCAGAGGCGGCAGCCUUCGGUGGCGCGAUAGCGCCAACGUUCUCAACUAUGACACGCAAAACGCGUGCUCCGUUGAAUGGAGUUUAUCAUG

The variants in the data set derive from B1. In words: polymerase ribozyme fitness, log enrichment relative to wild type (log ratio); higher = more active; in vitro selection for triplet polymerase activity. A digest of the protocol: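 The heterodimeric triplet polymerase ribozyme's subunits were each mutagenized into PCR-built libraries and transcribed. Every library was selected once, in triplicate, by annealing with a biotinylated primer, the partner subunit and triplets, incubating frozen at −7 °C, gel-excising extended constructs, capturing on streptavidin beads and running RT-PCR. Input and output libraries were Illumina-sequenced, with genotypes kept only at ≥10 input reads and ≥1 read per output. Fitness, from inverse-variance-weighted replicate averages, is the base-2 logarithm of genotype enrichment over wild-type enrichment.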
For C51U U78G, the “polymerase ribozyme fitness (log ratio)” value is at most -4.2.
As for C54G C72U C85A A89C C96A C116G, the figure is at most -4.2; as for C54U C87U G92C, -0.365.
Turning to C54G U55A G94U A98C U146G, the “polymerase ribozyme fitness (log ratio)” value was -3.37.
As for A52C U55A A107G, the figure is at most -4.2; as for U53A G58A G71A G126A U135G, at most -4.2.
As for U53C G58C C79U C99U C129U, the figure is at most -4.2.
A52C U53A G65A A66C C79U C149U: the “polymerase ribozyme fitness (log ratio)” value is at most -4.2.
For A52U C57A U78G C85A G92U G94C A119U G128C U145A, the “polymerase ribozyme fitness (log ratio)” value is at most -4.2.
U53A C57G: the “polymerase ribozyme fitness (log ratio)” value is -2.09.
As for A52C U90G, the figure is at most -4.2; as for A52C G94C A106G, -1.86.
As for A52G G70C C96A C125A G136C, the figure is at most -4.2; as for A52G U55A G83U C85U A121C G143U, at most -4.2.
Take C54A G86A C99A C103A A142G: the “polymerase ribozyme fitness (log ratio)” value is at most -4.2.
C54A G68A A142U: the “polymerase ribozyme fitness (log ratio)” value is at most -4.2.
As for U53A C103G, the figure is -3.95; as for U53A C85U A91C, at most -4.2; as for U53A C63G G70A C79U G88C, at most -4.2.
As for C54A U55A C103G, the figure is at most -4.2.
As for C54G A64G A106U A107C U148A, the figure is at most -4.2; as for A52U C76U A119U U134A, at most -4.2; as for A52U A73C G83C G84A G92U C123G, at most -4.2.
On to A52G U101A A138G, for which the “polymerase ribozyme fitness (log ratio)” value was at most -4.2.
As for U53C A91U U102A C105U A147G, the figure is at most -4.2; as for A52C C54G A91G C116A C132U U134C, at most -4.2.
For the variant U53A U55A C103G, the “polymerase ribozyme fitness (log ratio)” value was at most -4.2.
As for U53C G83C C116G, the figure is -3.05; as for U53A C63U A89U A98G U127G, at most -4.2; as for A52C C96U A119U U130G, at most -4.2.
As for C54U C69U A73U G92U C114G C125U, the figure is at most -4.2; as for U53C G86A C95U, -1.78.
Take C54U C76U C85G: the “polymerase ribozyme fitness (log ratio)” value was -1.18.
As to U53A G81A C85A C131U, the “polymerase ribozyme fitness (log ratio)” value was -4.19.
As to C54G U82G G94A U104C G117A A119U G124U G136A U151G, the “polymerase ribozyme fitness (log ratio)” value is at most -4.2.
As for U53G C79G C95G U130G G141C, the figure is at most -4.2.
As for A52C G83U A106G, the figure is -2.56; as for U53C U90C G94C U104G, at most -4.2; as for A52G C87G, at most -4.2.
As for A52U C57U C95G C116G A138C, the figure is at most -4.2; as for A52C A73U, -3.14; as for C54U C85G C87G, at most -4.2.
Regarding C54A C116U U139A, the “polymerase ribozyme fitness (log ratio)” value is -4.11.
As for C54G C76A A89C A98U A115U U151A, the figure is at most -4.2; as for C54G G59U U135C A138U, at most -4.2; as for A52C C96A, -1.55.
As to C54G G86U A97G A107G A137C C149G, the “polymerase ribozyme fitness (log ratio)” value is at most -4.2.
Consider U53G G59A, for which the “polymerase ribozyme fitness (log ratio)” value is -1.37.
As for U53A C57G U78G, the figure is at most -4.2; as for A52U G84A G143C, -3.92.
Turning to C54A A91C C95A, the “polymerase ribozyme fitness (log ratio)” value was at most -4.2.
Take U53A C54U U55A A60U U77G C85U G92A G112A A121U: the “polymerase ribozyme fitness (log ratio)” value was at most -4.2.
As for U53A U55A G58C G59C G67U G94A C99A C103U U127A, the figure is at most -4.2; as for U53A U55A G74A G84A C95U G141U, at most -4.2; as for A52U U56G A73U G92C A110U A115U G152A, at most -4.2.
Turning to C54A U55G G58U G81C C85A, the “polymerase ribozyme fitness (log ratio)” value was -2.41.
As for A52C A66U C93U U146A U148A, the figure is at most -4.2; as for A52C U101G, -1.56.
For A52C U77G C79U C87A C95U, the “polymerase ribozyme fitness (log ratio)” value was at most -4.2.
Turning to U53G U55A U148C, the “polymerase ribozyme fitness (log ratio)” value was at most -4.2.
For U53A U55G G65C C85G C87U C103U C131A, the “polymerase ribozyme fitness (log ratio)” value was at most -4.2.
As for U53A C93U G140A, the figure is at most -4.2; as for A52G U78C A89U, -1.24; as for C54U C93G A115G C129A C131G, at most -4.2.
As for A52U C85A G126A G140C, the figure is at most -4.2.
As for A52U U104A G133C G141C U146G, the figure is at most -4.2.
For A52G C87A G124A, the “polymerase ribozyme fitness (log ratio)” value is at most -4.2.
As for U53A U127A A137G, the figure is at most -4.2.
As for C54G C93A C95G A150G, the figure is at most -4.2.
As to C54U C93G U145A, the “polymerase ribozyme fitness (log ratio)” value is at most -4.2.
A52G U56G G83A: the “polymerase ribozyme fitness (log ratio)” value was -2.85.
As for A52G U56A C96U G140U, the figure is at most -4.2.
As for A52C G83C C87U A122G, the figure is at most -4.2; as for C54U C76U C93G A150G, -4.08.
Regarding C54A A66G C87G C108A, the “polymerase ribozyme fitness (log ratio)” value is at most -4.2.
As for A52G G71U A73G C76A G88U A106G, the figure is at most -4.2; as for A52C A91C A120C, at most -4.2; as for U53A A60G C96U A106U U139G, -2.41.
Consider C54A U78A C87G, for which the “polymerase ribozyme fitness (log ratio)” value is at most -4.2.
As for A52G C93G C96U U104C A150G, the figure is at most -4.2; as for C54U C57A C75U A91G, -3.62; as for C54G U55A G94A C132U, at most -4.2.
As for A52G C96U, the figure is -1.46.
